{
  "source": "PubChem BioAssay AID485364",
  "about": "(National Center for Advancing Translational Sciences (NCATS), 2010)",
  "note": "Where “and” joins values, the source holds several entries; their conditions need not be identical. Identical values can stand only once. Among all 360,000 compounds or so, about 11,000 (3.1%) were called active. The inconclusive results got no clear call from the source; some entries with a clear call stand among them for comparison. Calls follow the shape of the dose curve; as a rule, active = well fitted inhibition curve with a large enough effect; inconclusive = small, poorly fitted or top-dose-only effect; inactive = no such curve, though single readings can be large or run the other way. Potencies of inconclusive entries are doubtful fits and often do not repeat.",
  "data": [
    {"target": "Schistosoma mansoni thioredoxin glutathione reductase (TGR) (UniProt Q962Y6)", "experiment": "qHTS Assay for the Inhibitors of Schistosoma Mansoni Peroxiredoxins; also: nearly all actives have a fitted effect of over 60% in size; also: potency is read from the fitted curve at half-maximal effect; tags tell the direction and shape of the fitted curve; as to activity change, negative = inhibition: % is scaled to controls: 0 for no effect and ±100 for the full control effect", "details": "purified TGR, DTNB reduction, TNB absorbance 405 nm; activity change, negative = inhibition: at 114 µM (top of the series) unless noted", "procedure,_shortened": "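TGR 20 nM + NADPH 100 uM (dispensed conc.), cpd preinc 15 min RT; start with NADPH (500 uM addition) then DTNB (15 mM addition). Kinetic TNB absorbance, 405 nm filter. Four-parameter Hill fit across titration.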", "values": [
      {"compound": "Cc1ccc(C(=O)NCC(c2cccs2)S(=O)(=O)c2cccs2)cc1C", "note": "(stereo not given)", "Potency": "inconclusive: 35.5 µM [inhibitor, partial curve]"},
      {"compound": "O=C(c1ccc(F)c([N+](=O)[O-])c1)N1CC2CC(C1)c1cccc(=O)n1C2", "note": "(stereo not given)", "Potency": "inconclusive: 39.8 µM [inhibitor, partial curve]"},
      {"compound": "COc1cccc(C(=O)Nc2ccc(C)cc2)c1", "activity change, negative = inhibition": "inactive: -12.5%"},
      {"compound": "O=C1C2CC=C(Cl)CC2C(=O)N1CCc1ccccc1", "note": "(stereo not given)", "Potency": "inconclusive: 44.7 µM [inhibitor, partial curve]"},
      {"compound": "O=C(NC(=S)NNC(=O)[C@H]1C[C@@H]1c1ccccc1)c1cccc(F)c1", "Potency": "inconclusive: 39.8 µM [inhibitor, full curve]"},
      {"compound": "CCCCOc1ccc(C(=O)NCCCC(=O)N2CCCCC2)cc1", "activity change, negative = inhibition": "inactive: 32.1%"},
      {"compound": "Fc1ccc(-c2nnc(Cc3ccc(Cl)cc3)o2)cc1", "Potency": "inconclusive: 2.82 µM [inhibitor, single point]"},
      {"compound": "COc1ccc(NC(=S)Nc2ccc(OC(F)F)cc2)cn1", "Potency": "inconclusive: 35.5 µM [inhibitor, partial curve]"},
      {"compound": "COC(=O)c1ccccc1NC1=C/C(=N\\S(=O)(=O)c2cccs2)c2ccccc2C1=O", "Potency": "inconclusive: 35.5 µM [inhibitor, partial curve]"},
      {"compound": "Cc1ccc(NC(=O)C2Cc3ccccc3N2C(=O)c2ccccc2)cc1Cl", "note": "(stereo not given)", "activity change, negative = inhibition": "inactive: 0.114%"},
      {"compound": "Cc1ccc(Nc2nc(N)c(C#N)c(CC#N)c2C#N)cc1", "Potency": "inconclusive: 56.2 µM [inhibitor, partial curve]"},
      {"compound": "O=S(=O)(Nc1ccc(N2CCCCC2)cc1)c1ccc(F)cc1F", "Potency": "inconclusive: 44.7 µM [inhibitor, partial curve]"},
      {"compound": "O=C(NCc1ccco1)Nc1ccc2nsnc2c1", "Potency": "inconclusive: 44.7 µM [inhibitor, partial curve]"},
      {"compound": "O=C(NCc1cccc(F)c1)c1ccc(CS(=O)c2ccccc2Cl)o1", "note": "(stereo not given)", "Potency": "inconclusive: 50.1 µM [inhibitor, partial curve]"},
      {"compound": "CCOC(=O)C1=C(N)N(c2cc(S(=O)(=O)N3CCOCC3)ccc2Cl)C(=O)C1", "Potency": "inconclusive: 35.5 µM [inhibitor, full curve, poor fit]"},
      {"compound": "CN(c1ccc(C(=O)NCCSCc2ccco2)cc1)S(C)(=O)=O", "Potency": "inconclusive: 89.1 µM [inhibitor, single point]"},
      {"compound": "CC(Cl)C(=O)c1ccc2c(c1)CCN2C(=O)C1CC1", "note": "(stereo not given)", "Potency": "inconclusive: 31.6 µM [inhibitor, partial curve]"},
      {"compound": "O=C(NCCc1ccc(Cl)cc1)c1cccn1-c1nnc(N2CCCCC2)s1", "activity change, negative = inhibition": "inactive: 14.9%"},
      {"compound": "Cc1cc(O)c(C(c2cccc(F)c2)N2CCC(C)CC2)c(=O)n1Cc1ccco1", "note": "(stereo not given)", "Potency": "active: 25.1 µM"},
      {"compound": "COc1ccc(N2CCN(C(=O)CSCc3nc(-c4ccccc4Cl)oc3C)CC2)cc1", "activity change, negative = inhibition": "inactive: -8.12%"},
      {"compound": "CC(=O)NCC(=O)OCC(=O)N1c2ccccc2Sc2ccccc21", "Potency": "inconclusive: 35.5 µM [inhibitor, full curve, poor fit]"},
      {"compound": "O=C(Nc1cccc(-c2nc3ncccc3o2)c1)c1ccc(-c2cccc(Cl)c2Cl)o1", "Potency": "inconclusive: 44.7 µM [inhibitor, partial curve]"},
      {"compound": "NS(=O)(=O)c1ccc(NS(=O)(=O)c2ccc(NC(=S)Nc3ccccc3)cc2)cc1", "Potency": "inconclusive: 56.2 µM [inhibitor, partial curve]"},
      {"compound": "Cc1cccc(NC(=O)Cn2nc(-c3ccc(Cl)cc3)c3ccccc3c2=O)c1", "activity change, negative = inhibition": "inactive: 9.04%"},
      {"compound": "CC(Cc1cccs1)NC(=O)Nc1ccccc1", "note": "(stereo not given)", "activity change, negative = inhibition": "inactive: 0%"},
      {"compound": "Cc1ccc2[nH]cc(CCNC(=O)/C=C/c3ccco3)c2c1", "Potency": "active: 28.2 µM"},
      {"compound": "C=CCSc1nnc2nc3c(nn12)c1cc(C)ccc1n3CC=C", "Potency": "inconclusive: 39.8 µM [inhibitor, partial curve]"},
      {"compound": "O=C(N[C@@H](Cc1c[nH]c2ccccc12)C(=O)O)C1CCN(S(=O)(=O)c2cccs2)CC1", "activity change, negative = inhibition": "inactive: -9.86%"},
      {"compound": "NS(=O)(=O)c1ccc(-c2ccc(C=NC3CCS(=O)(=O)C3)o2)cc1", "note": "(stereo not given)", "Potency": "active: 70.8 µM"},
      {"compound": "O=C(Cn1cc(/C=N/NC(=O)c2ccccc2Br)c2ccccc21)Nc1ccc(F)cc1", "activity change, negative = inhibition": "inactive: 4.83%"},
      {"compound": "O=C1N(Cc2cccnc2)C[C@@H]2C[C@@H](c3ccc4nonc4c3)N3CCC[C@@]123", "Potency": "active: 28.2 µM"},
      {"compound": "O=C(NC(NNc1ccc([N+](=O)[O-])cc1)(C(F)(F)F)C(F)(F)F)c1ccccc1Cl", "Potency": "inconclusive: 50.1 µM [inhibitor, partial curve]"},
      {"compound": "COc1ccc(NC(=O)C2CCN(C(=O)c3sc4nc[nH]c(=O)c4c3C)CC2)c(OC)c1", "activity change, negative = inhibition": "inactive: 7.91%"},
      {"compound": "O=C(/C=C/c1ccco1)Nc1ccc(CN2CCOCC2)cc1", "Potency": "active: 20 µM"},
      {"compound": "O=C(NC1CC1)c1ccc(CSCc2ccccc2Cl)o1", "Potency": "inconclusive: 39.8 µM [inhibitor, partial curve]"},
      {"compound": "Cc1ccccc1-n1nc2c(c1NC(=O)c1cccs1)CS(=O)(=O)C2", "Potency": "inconclusive: 56.2 µM [inhibitor, partial curve]"},
      {"compound": "Cc1ccccc1N1CCN(CCC(=O)Nc2ccc(F)cc2)CC1", "Potency": "active: 39.8 µM"},
      {"compound": "Cc1cc(=O)oc2ccc(OCC(=O)N(Cc3ccc(F)cc3)Cc3ccco3)cc12", "Potency": "active: 17.8 µM"},
      {"compound": "CCN(C(=O)CCS(=O)(=O)c1cccc2nsnc12)c1cccc(C)c1", "Potency": "inconclusive: 50.1 µM [inhibitor, partial curve] and inconclusive: 25.1 µM [inhibitor, full curve]"},
      {"compound": "CC1=C(C(=O)OC2CCCCCCC2)C(c2ccc(O)cc2)NC(=O)N1", "note": "(stereo not given)", "Potency": "inconclusive: 89.1 µM [inhibitor, partial curve, poor fit]"},
      {"compound": "c1ccc(Nc2nc(CSc3ncn[nH]3)cs2)cc1", "Potency": "inconclusive: 35.5 µM [inhibitor, partial curve]"},
      {"compound": "Cn1c(=O)c(Cc2ccccc2)c(O)c2ccccc21", "activity change, negative = inhibition": "inactive: -21.8%"},
      {"compound": "Cc1ccc(/C=C2\\C(=O)NC(=O)N(Cc3ccccc3Cl)C2=O)o1", "Potency": "inconclusive: 0.708 µM [inhibitor, full curve]"},
      {"compound": "COc1cccc(N2C(=O)CC(N3CCN(c4ccc([N+](=O)[O-])cc4)CC3)C2=O)c1", "note": "(stereo not given)", "Potency": "inconclusive: 50.1 µM [inhibitor, partial curve]"},
      {"compound": "COc1ccc(C(=O)CSc2nn3c(=O)c(C(C)(C)C)nnc3s2)cc1", "activity change, negative = inhibition": "inactive: 29.4%"},
      {"compound": "Cc1ccc(/C=N/NC(=O)c2cccc(NC(=O)c3ccccc3C)c2)o1", "Potency": "inconclusive: 50.1 µM [inhibitor, partial curve]"},
      {"compound": "COc1ccccc1N1CSC2=C(C#N)C(c3ccc(SC)cc3)CC(=O)N2C1", "note": "(stereo not given)", "Potency": "inconclusive: 17.8 µM [inhibitor, partial curve]"},
      {"compound": "COc1ccc(CC2(CO)CCN(S(=O)(=O)c3c(C)nn(C)c3C)CC2)cc1", "activity change, negative = inhibition": "inactive: -14.6%"},
      {"compound": "CCCc1cc(NC(=O)CCl)n(-c2ccccc2)n1", "Potency": "active: 10 µM"},
      {"compound": "O=C(CN1CCC(NC(=O)Nc2ccc(F)cc2)CC1)Nc1ccccc1[N+](=O)[O-]", "Potency": "inconclusive: 39.8 µM [inhibitor, partial curve]"},
      {"compound": "Cc1ccc(-c2nc(CS(=O)(=O)CC(=O)NCc3cccc(F)c3)c(C)o2)cc1", "Potency": "inconclusive: 7.08 µM [inhibitor, full curve, poor fit]"},
      {"compound": "Cc1ccc(-c2nc(CS(=O)(=O)CC(=O)NC3CC3)c(C)o2)cc1", "Potency": "active: 31.6 µM"},
      {"compound": "O=[N+]([O-])C1=C(Nc2cccc3ccccc23)CS(=O)(=O)C1", "Potency": "inconclusive: 39.8 µM [inhibitor, partial curve]"},
      {"compound": "COc1ccc(NC(=O)C(=O)NCCN2CCN(C(=O)c3ccco3)CC2)cc1", "activity change, negative = inhibition": "inactive: -11.2%"},
      {"compound": "Cc1cc(=O)n(CC(C)O)c(O)c1C#N", "note": "(stereo not given)", "Potency": "inconclusive: 31.6 µM [inhibitor, partial curve, poor fit]"},
      {"compound": "COC(=O)c1ccc(CSc2nnc3n(Cc4ccccc4OC)c(=O)c4ccccc4n23)o1", "Potency": "inconclusive: 39.8 µM [inhibitor, partial curve]"},
      {"compound": "CCOc1ccc(S(=O)(=O)n2nc(C)c(S(=O)(=O)N3CCCCCC3)c2C)cc1", "Potency": "inconclusive: 31.6 µM [inhibitor, single point]"},
      {"compound": "CCN(c1ccccc1)S(=O)(=O)c1cc(C(=O)Nc2ccc(Br)cc2)ccc1F", "Potency": "inactive"},
      {"compound": "COc1ccccc1CN1C[C@@H]2C[C@@H](c3ccc(Cl)cc3)N3CCC[C@@]23C1=O", "Potency": "inconclusive: 35.5 µM [inhibitor, full curve]"},
      {"compound": "COc1ccc(NS(=O)(=O)c2ccc(O)c(NC(=O)c3cc4c(C)nn(-c5ccc(F)cc5)c4s3)c2)cc1", "activity change, negative = inhibition": "inactive: 6.73%"},
      {"compound": "CCCS(=O)(=O)N1CCCC(C(=O)NCC(OC)OC)C1", "note": "(stereo not given)", "activity change, negative = inhibition": "inactive: -2.08%"},
      {"compound": "CCCNC(=O)CS(=O)(=O)Cc1nc(-c2ccccc2C)oc1C", "Potency": "active: 50.1 µM"},
      {"compound": "Cc1ccc(C)c(S(=O)(=O)N2CCN(CC(=O)NC(=O)NCc3ccco3)CC2)c1", "Potency": "inconclusive: 44.7 µM [inhibitor, partial curve]"},
      {"compound": "N#Cc1c(NC(=O)c2cc([N+](=O)[O-])ccc2N2CCOCC2)sc2c1CCCC2", "Potency": "inconclusive: 79.4 µM [inhibitor, single point]"},
      {"compound": "S=c1[nH]nc(-c2ccccc2Cl)n1/N=C/C=C/c1ccco1", "Potency": "active: 20 µM"},
      {"compound": "COC(=O)CNC(c1ccccc1)c1cc(Br)ccc1NC(=O)c1cc(OC)c(OC)c(OC)c1", "note": "(stereo not given)", "activity change, negative = inhibition": "inactive: 2.47%"},
      {"compound": "COc1cc2cc(CCCOC(=O)c3cccc(Br)c3)oc(=O)c2cc1OC", "Potency": "inconclusive: 4.47 µM [inhibitor, full curve]"},
      {"compound": "CCCCNC(=O)c1ccc(-c2nc(CS(=O)(=O)c3ccc(C)cc3)c(C)o2)cc1", "Potency": "active: 39.8 µM"},
      {"compound": "COc1ccccc1NC(=O)Oc1ccc(NC(=O)c2ccco2)cc1", "Potency": "inconclusive: 44.7 µM [inhibitor, partial curve]"},
      {"compound": "Nc1cccc(Nc2ncnc3ccccc23)c1", "activity change, negative = inhibition": "inactive: 4.34%"}
    ]}
  ]
}
